The antibiotic and cytotoxicity screens of Wong et al. (2023)
The list shows a part of the results.

system: HSkMC (human skeletal muscle cells); assay: cytotoxicity call (relative viability < 0.9); details: 10 µM

Row | Compound | cytotoxicity call
1 | CCCN(C)C[C@H]1OCCCC[C@@H](C)Oc2ccc(NC(=O)C3CCCCC3)cc2C(=O)N([C@H](C)CO)C[C@@H]1C | inactive
2 | CN1C(=O)c2cc(NS(=O)(=O)c3cccc(F)c3)ccc2OC[C@H]2O[C@H](CC(=O)NCCN3CCCCC3)CC[C@H]21 | inactive
3 | COc1ccc(NC(=O)N(C)C[C@H]2OCCCC[C@H](C)Oc3ccc(NS(=O)(=O)c4cccs4)cc3C(=O)N([C@@H](C)CO)C[C@H]2C)cc1 | inactive
4 | COCC#Cc1ccc2c(c1)O[C@H](CN(C)S(C)(=O)=O)[C@H](C)CN([C@H](C)CO)S2(=O)=O | inactive
5 | COCC#Cc1ccc2c(c1)O[C@H](CN(C)S(=O)(=O)c1ccc(C)cc1)[C@@H](C)CN([C@H](C)CO)S2(=O)=O | inactive
6 | C[C@H](CO)N1C[C@H](C)[C@H](CN(C)C(=O)Nc2ccc3c(c2)OCO3)Oc2c(NC(=O)Nc3cccc4ccccc34)cccc2C1=O | inactive
7 | C[C@@H]1CN([C@H](C)CO)C(=O)c2cc(NC(=O)NC3CCCCC3)ccc2O[C@@H]1CN(C)Cc1ccc(-c2ccccc2)cc1 | inactive

system: HepG2; assay: cytotoxicity call (relative viability < 0.9); details: 10 µM

Row | Compound | cytotoxicity call
8 | CSc1nc(Cl)cc(Cl)n1 | inactive
9 | C[C@H](CO)N1C[C@H](C)[C@@H](CN(C)C(=O)Nc2ccc(C(F)(F)F)cc2)Oc2c(NS(C)(=O)=O)cccc2C1=O | inactive
10 | COc1ccc(S(=O)(=O)N(C)C[C@H]2Oc3ccc(NS(=O)(=O)c4ccc(C)cc4)cc3C(=O)N([C@H](C)CO)C[C@@H]2C)cc1 | inactive
11 | C[C@@H]1CN([C@@H](C)CO)S(=O)(=O)c2ccc(C#Cc3cccnc3)cc2O[C@@H]1CN(C)CC1CCOCC1 | inactive
12 | CC(C)NC(=O)N(C)C[C@@H]1Oc2c(NC(=O)C3CCOCC3)cccc2C(=O)N([C@@H](C)CO)C[C@H]1C | inactive
13 | CC[C@@H](CO)NC(=O)c1ccc(N)cc1 | inactive
14 | C[C@@H]1CCCCO[C@H](CN(C)S(=O)(=O)c2cccs2)[C@@H](C)CN([C@H](C)CO)C(=O)c2cc(NC(=O)c3ccccc3)ccc2O1 | inactive
15 | Cc1ccc(C(=O)Oc2ccc(/C=N/c3cccs3)cc2)cc1 | active
16 | Cc1ccc(-c2ccc3c(c2)O[C@@H](CN(C)C(=O)Nc2ccc(C(F)(F)F)cc2)[C@H](C)CN([C@@H](C)CO)S3(=O)=O)cc1 | inactive
17 | C[C@@H]1CN([C@H](C)CO)C(=O)c2cccc(NC(=O)c3cnccn3)c2O[C@H]1CN(C)S(=O)(=O)c1ccc(F)cc1 | inactive
18 | CN1CCN(C(=O)C[C@H]2CC[C@@H]3[C@H](COC[C@H](O)CN3CC3CCCC3)O2)CC1 | inactive
19 | C[C@H](CO)N1C[C@H](C)[C@@H](CN(C)CC2CCCCC2)Oc2ccc(NC(=O)CCN3CCOCC3)cc2CC1=O | inactive
20 | C[C@@H]1CN([C@@H](C)CO)C(=O)c2cc(NS(=O)(=O)c3ccc(F)cc3)ccc2O[C@H]1CN(C)Cc1ccncc1 | inactive
21 | C[C@@H]1CN([C@H](C)CO)C(=O)c2cc(NC(=O)c3ccncc3)ccc2O[C@@H]1CN(C)Cc1ccc(-c2ccccc2)cc1 | inactive
22 | CC(C)NC(=O)N(C)C[C@H]1Oc2ccc(NC(=O)CCC(F)(F)F)cc2CC(=O)N([C@@H](C)CO)C[C@@H]1C | active
23 | C[C@@H]1CN([C@H](C)CO)C(=O)c2cc(NS(=O)(=O)c3ccccc3)ccc2O[C@@H](C)CCCCO[C@@H]1CN(C)C(=O)c1ccccc1 | inactive
24 | C[C@@H]1CCCCO[C@H](CN(C)Cc2ccccc2)[C@H](C)CN([C@@H](C)CO)C(=O)c2cc(NS(=O)(=O)c3ccc(F)cc3)ccc2O1 | inactive
25 | O=C(CN1CCOCC1)NCC[C@@H]1CC[C@@H](NS(=O)(=O)c2ccc(F)cc2)[C@@H](CO)O1 | inactive
26 | COc1ccccc1S(=O)(=O)N[C@@H]1C=C[C@@H](CC(=O)N2CCN(C)CC2)O[C@H]1CO | inactive
27 | C[C@@H]1CN([C@@H](C)CO)C(=O)c2cc(NC(=O)Nc3ccc(F)cc3)ccc2O[C@@H](C)CCCCO[C@H]1CN(C)Cc1ccc(Cl)c(Cl)c1 | inactive
28 | CN(C)c1nc(N)nc(Cn2ccnc2)n1 | inactive
29 | O=C(C[C@H]1CC[C@@H]2[C@H](COC[C@H](O)CN2S(=O)(=O)c2ccccc2)O1)N[C@H]1CCN(Cc2ccccc2)C1 | inactive
30 | CC(C)NC(=O)Nc1ccc2c(c1)C(=O)N([C@H](C)CO)C[C@H](C)[C@@H](CN(C)C(=O)Nc1ccc(C(F)(F)F)cc1)OCCCC[C@@H](C)O2 | inactive
